Experiment in all cases: Viability of human cancer cell lines after 72 h of drug (GDSC screen)
Compound in one assay: COc1ccc(C2=N[C@@H](c3ccc(Cl)cc3)[C@@H](c3ccc(Cl)cc3)N2C(=O)N2CCNC(=O)C2)c(OC(C)C)c1 [Nutlin-3a]
The method, then: (§1)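 Human cancer cell lines in 384-well plates, medium with 10% serum, drug for 72 h over a 256-fold dose range (nine 2-fold or five 4-fold steps up to the top dose). Adherent lines were fixed and stained with the nucleic acid dye Syto60, suspension lines read with resazurin; signal relative to control wells, capped at 0 and 100%. One two-parameter sigmoid per drug and line, fitted in a mixed model over all curves with the slope shared within a line.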

Compound in the next assay: Cc1cccc(Nc2nc(-c3ccncc3)cs2)c1 [STF-62247]
The settings on record: top dose 10.24 µM; top dose inferred. The procedure:
as §1

Compound in the next assay: COCC(=O)NC/C=C/c1ccc2ncnc(Nc3ccc(Oc4ccc(C)nc4)c(C)c3)c2c1 [CP724714]
The following applies: top dose 10.24 µM; top dose inferred. The method, then: as §1

Compound in the next assay: Cc1cnc(CNC(=O)c2c(=O)c3ccc(N4CCCN(C)CC4)nc3n3c2sc2ccccc23)cn1 [CX-5461]
The following applies: top dose 10.24 µM; top dose inferred. The method, then:
as §1

Compound in the next assay: COC1=CC(c2cc3ccccc3[nH]2)=N/C1=C\c1[nH]c(C)cc1C [Obatoclax mesylate]
The following applies: top dose 16 µM. The procedure: as §1

Lines with a small IC50 respond at low doses; a fit beyond the top or the lowest dose is shown as a bound at that dose. For AUC the same curve is integrated over the 256-fold range of doses and scaled to a fraction: 1 means no effect, lower means more sensitive. For part of these data: The top dose, if marked as inferred, comes from the curve model; the source does not state it. Where only a bound is given, the exact number is not on record here.

Take “8-MG-BA (glioma, adherent, top dose 8 µM)”: in the assay with Nutlin-3a, the AUC stood at 0.987 and the IC50 (commonly the concentration that gives 50% inhibition) is above 8 µM.
On to “42-MG-BA (glioma, adherent, top dose 8 µM)”, for which, in the assay with Nutlin-3a, the AUC was determined as 0.977 and the IC50 was above 8 µM.
Take “201T (lung adenocarcinoma, adherent, top dose 8 µM)”: in the assay with Nutlin-3a, the AUC was found to be 0.977 and the IC50 is above 8 µM.
In the same order, the values of “451Lu (melanoma, adherent, top dose 8 µM)” are 0.967 and above 8 µM.
In the same order, the values of “639-V (bladder, adherent, top dose 8 µM)” are 0.95 and above 8 µM.
For the cell line “647-V (bladder, adherent, top dose 8 µM)”, in the assay with Nutlin-3a, the AUC stood at 0.987 and the IC50 was above 8 µM.
Consider “697 (lymphoblastic leukaemia, suspension, top dose 8 µM)”, for which, in the assay with Nutlin-3a, the AUC came to 0.747 and the IC50 was determined as 2.13 µM.
In the same order, the values of 786-0 (kidney, adherent, top dose 8 µM) are 0.965 and above 8 µM.
Turning to 5637 (bladder, adherent, top dose 8 µM), in the assay with Nutlin-3a, the AUC is 0.988 and the IC50 was above 8 µM.
In the same order, the values of “8305C (thyroid, adherent, top dose 8 µM)” are 0.982 and above 8 µM.
Regarding “8505C (thyroid, adherent, top dose 8 µM)”, in the assay with Nutlin-3a, the AUC is 0.959 and the half-inhibitory concentration (IC50) is above 8 µM.
“23132-87 (stomach, adherent, top dose 8 µM)”: in the assay with Nutlin-3a, the AUC was 0.931 and the half-inhibitory concentration (IC50) is above 8 µM.
For “A3-KAW (B-cell lymphoma, suspension, top dose 8 µM)” the same measures were 0.888 and 5.83 µM.
In the same order, the values of “A4-Fuk (B-cell lymphoma, suspension, top dose 8 µM)” are 0.92 and above 8 µM.
Take “A101D (melanoma, adherent, top dose 8 µM)”: in the assay with Nutlin-3a, the AUC was found to be 0.754 and the IC50 was determined as 3.26 µM.
Take A172 (glioma, adherent, top dose 4 µM): the AUC with Nutlin-3a was 0.844.
For “A253 (head and neck, adherent, top dose 8 µM)”, in the assay with Nutlin-3a, the AUC amounted to 0.989 and the IC50 is above 8 µM.
For A388 (skin, adherent, top dose 8 µM) the same measures were 0.978 and above 8 µM.
Regarding “A427 (non-small cell lung carcinoma, adherent, top dose 8 µM)”, in the assay with Nutlin-3a, the AUC worked out at 0.876 and the IC50 was above 8 µM.
In the same order, the values of A498 (kidney, adherent, top dose 8 µM) are 0.93 and above 8 µM.
For “A673 (rhabdomyosarcoma, adherent, top dose 8 µM)” the same measures were 0.987 and above 8 µM.
In the same order, the values of A704 (kidney, adherent, top dose 8 µM) are 0.967 and above 8 µM.
As for “A2780 (ovary, semi-adherent, top dose 8 µM)”, in the assay with Nutlin-3a, the AUC was 0.957 and the 50% inhibitory concentration (IC50) is above 8 µM.
AGS (stomach, adherent, top dose 8 µM): in the assay with Nutlin-3a, the AUC was determined as 0.731 and the IC50 is 2.1 µM.
In the same order, the values of “ALL-PO (lymphoblastic leukaemia, suspension, top dose 8 µM)” are 0.807 and 4.38 µM.
Regarding “ALL-SIL (T-cell leukaemia, suspension, top dose 8 µM)”, in the assay with Nutlin-3a, the AUC was 0.952 and the IC50 was above 8 µM.
For “AM-38 (glioma, semi-adherent, top dose 8 µM)” the same measures were 0.818 and 4.64 µM.
In the same order, the values of “AMO-1 (haematopoietic neoplasm, suspension, top dose 8 µM)” are 0.86 and 5.22 µM.
For “ARH-77 (myeloma, suspension, top dose 8 µM)”, in the assay with Nutlin-3a, the AUC is 0.975 and the IC50 is above 8 µM.
In the same order, the values of “ASH-3 (thyroid, adherent, top dose 8 µM)” are 0.988 and above 8 µM.
In the same order, the values of “ATN-1 (T-cell lymphoblastic leukaemia, suspension, top dose 8 µM)” are 0.749 and 2.45 µM.
For AU565 (breast, adherent, top dose 8 µM) the same measures were 0.982 and above 8 µM.
On to “AsPC-1 (pancreas, adherent, top dose 4 µM)”, for which, in the assay with Nutlin-3a, the AUC was 0.87 and the half-inhibitory concentration (IC50) is above 4 µM.
For “BALL-1 (B-cell leukaemia, suspension, top dose 8 µM)” the same measures were 0.994 and above 8 µM.
In the same order, the values of “BB30-HNC (head and neck, adherent, top dose 8 µM)” are 0.91 and above 8 µM.
For “BB49-HNC (head and neck, adherent, top dose 8 µM)” the same measures were 0.833 and above 8 µM.
For the cell line “BC-1 (B-cell lymphoma, suspension, top dose 8 µM)”, in the assay with Nutlin-3a, the AUC was determined as 0.856 and the IC50 worked out at 4.98 µM.
For “BCPAP (thyroid, adherent, top dose 4 µM)” the same measures were 0.987 and above 4 µM.
As to “BE2-M17 (neuroblastoma, adherent, top dose 8 µM)”, in the assay with Nutlin-3a, the AUC was 0.983 and the IC50 was above 8 µM.
For “BE-13 (lymphoblastic leukaemia, suspension, top dose 8 µM)”, in the assay with Nutlin-3a, the AUC was 0.925 and the half-maximal inhibitory concentration (IC50) was above 8 µM.
In the case of “BFTC-905 (bladder, adherent, top dose 8 µM)”, in the assay with Nutlin-3a, the AUC came out at 0.988 and the IC50 was above 8 µM.
Consider “BHT-101 (thyroid, adherent, top dose 8 µM)”, for which, in the assay with Nutlin-3a, the AUC was found to be 0.899 and the IC50 is above 8 µM.
In the same order, the values of “BHY (head and neck, adherent, top dose 4 µM)” are 0.987 and above 4 µM.
For “BICR10 (head and neck, adherent, top dose 8 µM)”, in the assay with Nutlin-3a, the AUC amounted to 0.953 and the IC50 is above 8 µM.
Take “BICR22 (head and neck, adherent, top dose 8 µM)”: in the assay with Nutlin-3a, the AUC is 0.964 and the concentration for half-maximal inhibition (IC50) was above 8 µM.
In the same order, the values of “BICR78 (head and neck, adherent, top dose 8 µM)” are 0.965 and above 8 µM.
For “BL-41 (Burkitt lymphoma, suspension, top dose 8 µM)” the same measures were 0.994 and above 8 µM.
Turning to “BPH-1 (prostate, adherent, top dose 4 µM)”, in the assay with Nutlin-3a, the AUC worked out at 0.957 and the IC50 is above 4 µM.
In the same order, the values of BT-20 (breast, adherent, top dose 8 µM) are 0.984 and above 8 µM.
For “BT-474 (breast, adherent, top dose 8 µM)”, in the assay with Nutlin-3a, the AUC was 0.982 and the IC50 is above 8 µM.
For “BT-483 (breast, adherent, top dose 8 µM)” the same measures were 0.948 and above 8 µM.
For “BT-549 (breast, adherent, top dose 8 µM)” the same measures were 0.979 and above 8 µM.
Take “BV-173 (chronic myeloid leukaemia, suspension, top dose 8 µM)”: in the assay with Nutlin-3a, the AUC is 0.638 and the IC50 worked out at 1.15 µM.
For the cell line “Becker (glioma, adherent, top dose 8 µM)”, in the assay with Nutlin-3a, the AUC is 0.965 and the IC50 was above 8 µM.
For the cell line “BxPC-3 (pancreas, adherent, top dose 8 µM)”, in the assay with Nutlin-3a, the AUC came to 0.98 and the IC50 is above 8 µM.
In the case of “C2BBe1 (large intestine, adherent, top dose 4 µM)”, in the assay with Nutlin-3a, the AUC turned out to be 0.849 and the IC50 was determined as 3.65 µM.
For C3A (liver, adherent, top dose 8 µM) the same measures were 0.966 and above 8 µM.
For C32 (melanoma, adherent, top dose 8 µM) the same measures were 0.819 and 4.97 µM.
Take C-4-I (cervix, adherent, top dose 8 µM): in the assay with Nutlin-3a, the AUC was 0.986 and the IC50 was above 8 µM.
For “CA46 (Burkitt lymphoma, suspension, top dose 8 µM)” the same measures were 0.983 and above 8 µM.
For “CADO-ES1 (Ewing sarcoma, suspension, top dose 8 µM)” the same measures were 0.936 and above 8 µM.
Regarding “CAL-12T (non-small cell lung carcinoma, adherent, top dose 8 µM)”, in the assay with Nutlin-3a, the AUC was 0.957 and the IC50 was above 8 µM.
In the case of “CAL-27 (head and neck, adherent, top dose 8 µM)”, in the assay with Nutlin-3a, the AUC was 0.985 and the 50% inhibitory concentration (IC50) was above 8 µM.
In the same order, the values of “CAL-29 (bladder, adherent, top dose 8 µM)” are 0.92 and above 8 µM.
As for huH-1 (liver, adherent), the AUC with STF-62247 stood at 0.983; with CP724714, 0.978; with CX-5461 it was 0.984; with Obatoclax mesylate, 0.729. Also, the IC50 with STF-62247 was above 10.2 µM; in the assay with CP724714 it was above 10.2 µM; in the assay with CX-5461, above 10.2 µM; with Obatoclax mesylate it was 5.31 µM.
